Measured values: PubChem BioAssay AID624417 (National Center for Advancing Translational Sciences (NCATS), 2012)
Hit rate of the full screen: of about 410,000 compounds, about 6,400 (1.6%) were called active. The shares of active, inactive and inconclusive entries below differ from those in the screen. Calls follow the shape of the dose curve; as a rule, active = well fitted inhibition curve with a large enough effect; inconclusive = small, poorly fitted or top-dose-only effect; inactive = no such curve, though single readings can be large or run the other way. Potencies of inconclusive entries are left out as doubtful fits.

target: Glucagon-like peptide 1 receptor (Homo sapiens) (UniProt P43220); experiment: qHTS of GLP-1 Receptor Inverse Agonists (Inhibition Mode); details: HEK293 GLP-1R CRE-luciferase, luminescence, 24 h, GLP-1R form is constitutively active; activity change, negative = inhibition: at 38.3 µM (top of the series) unless noted; also: nearly all actives have a fitted effect of over 55% in size
Method in brief: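 Luminescence readout: a drop in cAMP-driven luciferase signal flags inverse agonism at a constitutively active GLP-1R stably expressed in HEK293. Compound exposure lasted 24 hr at 37 deg C, 5% CO2.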
% is scaled to controls: 0 for no effect and ±100 for the full control effect; potency is read from the fitted curve at half-maximal effect; tags tell the direction and shape of the fitted curve.

Chain of UniProt P43220 (P43220 whole entry, looked up): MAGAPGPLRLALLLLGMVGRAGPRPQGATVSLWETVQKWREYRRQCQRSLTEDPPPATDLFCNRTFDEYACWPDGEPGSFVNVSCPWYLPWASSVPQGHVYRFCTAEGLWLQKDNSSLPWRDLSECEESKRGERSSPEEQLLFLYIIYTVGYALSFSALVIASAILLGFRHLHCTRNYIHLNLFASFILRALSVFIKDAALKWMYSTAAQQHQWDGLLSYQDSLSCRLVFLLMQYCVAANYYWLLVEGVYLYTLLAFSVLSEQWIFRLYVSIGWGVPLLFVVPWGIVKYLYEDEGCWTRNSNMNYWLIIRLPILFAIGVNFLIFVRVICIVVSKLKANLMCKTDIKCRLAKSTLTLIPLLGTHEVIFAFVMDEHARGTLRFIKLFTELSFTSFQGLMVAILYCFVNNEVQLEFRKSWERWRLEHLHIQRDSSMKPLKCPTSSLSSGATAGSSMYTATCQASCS

SMILES	Potency	activity change, negative = inhibition
CC(=O)N/C(=C/c1ccc2c(c1)OCO2)C(=O)NC(Cc1ccccc1)C(=O)O (centres undefined)	inactive	
CCS/C(N)=N/N=C/c1cc(C)ccc1O	inconclusive [inhibitor, full curve, poor fit]	
Cc1cc(NC(=O)COC(=O)C2CC2)ccc1Br	inconclusive [inhibitor, partial curve, poor fit]	
COc1ccc(C2(N3CCN(c4cc(C)ccc4C)CC3)C(=O)c3ccccc3C2=O)cc1	inconclusive [inhibitor, partial curve, poor fit]	
Cc1ccccc1C(=O)Nc1ccccc1N1CCCCC1	inconclusive [inhibitor, full curve, poor fit]	
CCOc1ccccc1N1CN(Cc2ccccc2)CNC1=S	inconclusive [inhibitor, single point]	
O=C(Nc1ccccc1)c1cccc(N2C(=O)C3C4C=CC(C4)C3C2=O)c1 (centres undefined)	inconclusive [inhibitor, single point]	
CC1C(=O)N(Cc2ccc(F)cc2)c2ccccc2N1C(=O)c1c(F)cccc1F (centres undefined)	inconclusive [inhibitor, single point]	
CCOc1ccc(-n2c(-c3ccccc3)c[n+]3c2CCCCC3)cc1	inconclusive [inhibitor, full curve, poor fit]	
CCCOc1ccc(CNC(=O)CCCN2C(=O)CSc3c2c(C)nn3-c2ccccc2)cc1	inconclusive [inhibitor, partial curve, poor fit]	
CCc1cc(C(=O)Nc2ccc(OC)nc2)sc1C	inconclusive [inhibitor, single point]	
COC(=O)c1ccc(CN(c2ccccc2Cl)S(C)(=O)=O)cc1	inconclusive [inhibitor, partial curve, poor fit]	
O=C(C1CCC(Cn2c(=S)[nH]c3ccccc3c2=O)CC1)N1CCN(c2ccccn2)CC1 (centres undefined)	inactive	
CN(C)c1ccc2c(=O)c3ccccc3oc2n1	inconclusive [inhibitor, single point]	
O=C(Nc1nc2ccccc2[nH]1)C1CC(=O)N(c2ccc3c(c2)OCCO3)C1 (centres undefined)	inconclusive [inhibitor, single point]	
CC(OC(=O)c1cc2sccc2n1C)C(=O)NC(C)(C)C (centres undefined)	inconclusive [inhibitor, partial curve, poor fit]	
CCOC(=O)c1csc(NC(=O)c2ccc(OCC)cc2)n1	inconclusive [inhibitor, partial curve, poor fit]	
Cc1ccc(-c2nc(CCNC(=O)C(=O)Nc3ccc(C)c(Cl)c3)cs2)cc1	inactive	
O=C(c1ccc(Br)cc1)N1CCC(c2nc3ccccc3s2)CC1	inconclusive [inhibitor, single point]	
O=C1NC[C@H](c2ccccc2)OC(=O)[C@H](Cc2ccc(F)cc2)CC/C=C/C[C@@H]1CC(=O)N(CCO)Cc1ccccc1	inconclusive [inhibitor, single point]	
CCCCC(O)(CCN1CCOCC1)c1ccc(Cl)cc1 (centres undefined)	inconclusive [inhibitor, single point]	
CCOC(=O)C(C)Sc1nc2c(c(-c3cccs3)c1C#N)CCC2 (centres undefined)	inconclusive [inhibitor, partial curve, poor fit]	

SMILES	Potency	activity change, negative = inhibition
CCOC(=O)N1CCN(C2=C(NS(=O)(=O)c3ccc(C)cc3)C(=O)c3ccccc3C2=O)CC1	inconclusive [inhibitor, partial curve, poor fit]	
Cc1ccc(C)n1-n1c(C)nc2scc(-c3ccccc3)c2c1=O	inconclusive [inhibitor, partial curve, poor fit]	
CCC(c1nnnn1C1CCCC1)N1CCN(c2ccccc2F)CC1 (centres undefined)		inconclusive: -41.8% [inhibitor]
Brc1ccc(-c2csc(NNC3=NCCCCC3)n2)cc1	inactive	
c1ccc2oc(-c3ccn[nH]3)cc2c1	inactive	
COc1cc(Cl)ccc1OC1(C)CCN(Cc2ccc(-c3ccccn3)cc2)C1 (centres undefined)	inconclusive [inhibitor, partial curve, poor fit]	
COc1cccc(COc2ccc3c(C)cc(=O)oc3c2)c1	inactive	
O=C(CCN1C(=O)/C(=C\c2ccc(F)cc2)SC1=S)Nc1ccc(O)cc1	inconclusive [inhibitor, partial curve, poor fit]	
CC(OC(=O)c1ccc(O)cc1)C(=O)Nc1ccc(Oc2ccccc2)cc1 (centres undefined)	inconclusive [inhibitor, single point]	
CN(CC(=O)Nc1cccc(S(=O)(=O)N2CCCCC2)c1)Cc1ccc(F)cc1	inconclusive [inhibitor, single point]	
Cc1ccc(S(=O)(=O)N2CCOCC2)cc1NC(=O)CNCc1ccccn1	inactive	
Cc1ccc2nc(N(CCCN(C)C)C(=O)c3cc4ccccc4oc3=O)sc2c1	inconclusive [inhibitor, partial curve]	
CCC1=NN=C(c2ccc(F)cc2)C(c2c[nH]c3ccccc23)N1O (centres undefined)	inconclusive [inhibitor, partial curve, poor fit]	
CCOc1ccc(C(=O)Nc2c(C)nc(Nc3ccccc3)nc2Nc2ccccc2)cc1OCC	active: 10 µM	
CCOc1cc(/C=N/O)ccc1OCc1ccc(C)cc1	inconclusive [inhibitor, partial curve, poor fit]	
Nc1nc2c(nnn2C2CC(O)C(CO)O2)c(=O)[nH]1 (centres undefined)	inconclusive [inhibitor, full curve, poor fit]	
CN(N=Nc1nc[nH]c1C(N)=O)C1CCCCC1	inconclusive [inhibitor, partial curve, poor fit]	
Cc1ccccc1Cn1c(=O)n(CCCCC(=O)NCc2ccc3c(c2)OCO3)c(=O)c2ccccc21	inactive	
CC1=C(C(=O)Nc2ccccc2)C2(CCCCC2)C(C#N)=C(SCC(N)=O)N1	inconclusive [inhibitor, single point]	
CN(C)Cc1nc2ccccc2c(=O)n1Cc1nc(-c2cc3ccccc3o2)cs1	inconclusive [inhibitor, single point]	
Cc1cc2c(n1-c1ccc(C(=O)NCc3cccc(Br)c3)cc1)CCC(C)C2 (centres undefined)	inconclusive [inhibitor, single point]	
CC(=O)N(C)c1ccc(NC(=O)/C=C/c2ccccc2Cl)cc1	inconclusive [inhibitor, single point]	

SMILES	Potency	activity change, negative = inhibition
Cc1ccc(N2C(=O)CSC23C(=O)Nc2ccccc23)cc1F (centres undefined)	inactive	
CC(C)C[C@@H]1Cc2[nH][nH]c(=O)c2[C@H](c2ccc(Cl)cc2)O1	inconclusive [inhibitor, single point]	
CCc1cccc(Nc2c3c(nc4ncnn24)CCC3)c1	inactive	
COc1ccc(C(CNC(=O)c2ccc(Cl)s2)N2CCOCC2)cc1 (centres undefined)	inactive	
Cc1cccc2nc(CSc3nnc4ccccn34)cn12	inconclusive [inhibitor, single point]	
CCOC(=O)[C@]12CCC=C1N(Cc1cccc3ccccc13)C(=O)[C@H](CC(=O)NCc1ccc(C)o1)C2	inconclusive [inhibitor, partial curve, poor fit]	
COCCNC(=S)Nc1ccc(N2CCOCC2)c(S(=O)(=O)Nc2ccc(Cl)cc2)c1	inconclusive [inhibitor, partial curve, poor fit]	
CC(=O)c1cccc(NC(=O)C2CCN(c3nnc(-n4cccc4)s3)CC2)c1	inactive	
O=C(N[C@H]1CCC(=O)N([C@H](CSc2ccc(Br)cc2)Cc2ccccc2)CC1)OCc1ccccc1	active: 3.98 µM	
NC(=O)c1cc2cc(Cl)ccc2oc1=Nc1cccc(C(F)(F)F)c1	inactive	
COc1ccc(NC(=O)C[C@H]2C(=O)N(c3ccc(OC)cc3)C[C@@H]2c2ccc(Br)cc2)cc1	inconclusive [inhibitor, partial curve, poor fit]	
COc1cccc(NC(=O)Cc2ccc(NC(=O)N3CCCCc4ccccc43)cc2)c1	inconclusive [inhibitor, partial curve, poor fit]	
CCc1nc2ccc(C(=O)Nc3cc(-c4ccccc4)ccc3OC)cn2c1N(C)C(=O)c1cccc(OC)c1	inconclusive [inhibitor, partial curve, poor fit]	
CCN(c1ccccc1)S(=O)(=O)c1ccc2c(c1)OCCO2	inconclusive [inhibitor, partial curve, poor fit]	
O=C(Nc1cccc(C(=O)N2CCCc3ccccc32)c1)c1ccccc1	inconclusive [inhibitor, single point]	
Nc1c(S(=O)(=O)c2ccccc2)cnc2c(-c3ccc(F)cc3)cnn12	inactive	
Cc1ccc(NC(=O)CSCC(=O)N(C)CC(=O)Nc2c(C)cccc2C)cc1	inconclusive [inhibitor, partial curve]	
Cc1cc(C)cc(-n2c(C)cc(/C=N/NC(=O)CN(c3c(C)cccc3C)S(C)(=O)=O)c2C)c1	inconclusive [inhibitor, partial curve, poor fit]	
CCCN1CCN(C(=O)c2cc(COc3ccc(F)cc3F)on2)CC1	inconclusive [inhibitor, single point]	
C=CCn1c(C)cc(C(=O)COC(=O)/C=C/c2cccc(OC)c2)c1C	inconclusive [inhibitor, single point]	
